Test results reported in article PMC4336329 (PLoS ONE, 2015).
Hit rate of the full screen: of about 310,000 compounds, about 2,200 (0.71%) showed an effect of 50% or more. Effects have a minus sign here. This is one part of the list.

Molecular target: human ether-à-go-go-related gene (hERG) potassium channel (human, UniProt Q12809)
Assay: primary screen, population patch clamp on CHO cells stably expressing hERG

human ether-à-go-go-related gene (hERG) potassium channel, sequence (Q12809 whole entry, looked up): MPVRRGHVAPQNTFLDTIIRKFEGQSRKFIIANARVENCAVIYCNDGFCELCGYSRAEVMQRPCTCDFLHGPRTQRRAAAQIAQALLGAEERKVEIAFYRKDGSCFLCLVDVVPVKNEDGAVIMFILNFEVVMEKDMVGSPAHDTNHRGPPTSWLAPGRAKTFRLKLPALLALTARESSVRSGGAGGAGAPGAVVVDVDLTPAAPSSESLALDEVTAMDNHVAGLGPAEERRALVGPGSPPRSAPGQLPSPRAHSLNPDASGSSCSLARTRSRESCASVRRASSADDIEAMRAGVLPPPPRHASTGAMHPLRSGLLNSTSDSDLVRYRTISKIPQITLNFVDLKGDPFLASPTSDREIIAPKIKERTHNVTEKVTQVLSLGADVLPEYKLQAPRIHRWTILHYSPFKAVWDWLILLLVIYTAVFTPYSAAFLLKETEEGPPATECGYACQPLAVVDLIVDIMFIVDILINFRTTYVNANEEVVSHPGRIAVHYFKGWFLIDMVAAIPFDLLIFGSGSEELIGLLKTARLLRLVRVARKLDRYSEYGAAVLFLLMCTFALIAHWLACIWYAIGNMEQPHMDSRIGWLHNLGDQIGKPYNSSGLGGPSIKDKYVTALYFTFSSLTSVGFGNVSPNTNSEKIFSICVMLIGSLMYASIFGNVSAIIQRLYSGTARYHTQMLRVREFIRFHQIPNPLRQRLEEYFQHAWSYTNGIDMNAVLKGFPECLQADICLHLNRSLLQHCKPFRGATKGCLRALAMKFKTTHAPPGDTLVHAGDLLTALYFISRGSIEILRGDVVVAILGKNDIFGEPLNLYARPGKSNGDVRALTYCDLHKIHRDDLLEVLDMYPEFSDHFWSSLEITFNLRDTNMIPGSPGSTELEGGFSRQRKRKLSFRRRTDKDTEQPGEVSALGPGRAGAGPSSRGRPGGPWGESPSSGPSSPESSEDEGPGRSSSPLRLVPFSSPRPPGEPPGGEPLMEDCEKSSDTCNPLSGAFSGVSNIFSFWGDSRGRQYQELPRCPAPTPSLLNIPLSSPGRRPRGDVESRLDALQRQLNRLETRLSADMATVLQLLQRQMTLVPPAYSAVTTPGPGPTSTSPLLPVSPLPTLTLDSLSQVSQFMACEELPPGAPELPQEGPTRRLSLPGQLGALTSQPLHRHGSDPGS

| Compound | hERG current change (%, negative = inhibition) at 1uM [%] |
| --- | --- |
| COc1ccc(C)cc1N(CC(=O)NCCSCc1cccc(Cl)c1)S(C)(=O)=O | 8.1 |
| C/C(CC1CC(C)(C)OC1=O)=N/Nc1nc(-c2ccccc2)cs1 (stereo not shown) | 5.22 |
| COC(=O)c1ccc(NC(=O)COC(=O)COc2cccc3c2OC(C)(C)C3)cc1 | 14.7 |
| Cc1ccc(NC(=O)C(C)N2C(=O)c3ccccc3S2(=O)=O)cc1Cl (stereo not shown) | 10.7 |
| CNC[C@H](CC1CCCCC1)NC[C@H](CO)NCCc1cccc(C(F)(F)F)c1 | 1.9 |
| O=C(O)Cn1cc(C(=O)c2cccs2)c2ccccc21 | 8.25 |
| COc1ccccc1OCCC(=O)OCC(=O)NC(C)c1ccccc1 (stereo not shown) | 7.63 |
| COc1cccc(N2CCN(C(=O)c3ccc(CS(=O)c4ccccc4C)o3)CC2)c1 (stereo not shown) | 2.78 |
| Cc1nn(-c2ccccc2)c2sc(C(=O)n3cccn3)cc12 | 3.3 |
| CC(=O)N1Cc2cc(N)ccc2Oc2ccccc21 | 16.1 |
| CC(=O)c1cc(CN2CCC(C(=O)Nc3ccc(-n4nc(C)cc4C)cc3)CC2)cs1 | 5.63 |
| Cc1ccc(NC(=S)NCc2ccc(F)cc2)c(C)c1 | 13.9 |
| CC(=O)c1cccc(NC(=S)N2CCN(S(=O)(=O)c3ccc(F)cc3)CC2)c1 | 6.72 |
| O=C(NCc1ccccn1)C(=O)Nc1nc(-c2ccccc2)cs1 | 11 |
| Cn1nc(C(=O)NCc2ccco2)c2ccccc2c1=O | 3.53 |
| O=C(CCSc1ccccc1)NC(=O)COC(=O)c1ccc(OC(F)F)cc1 | 2.99 |
| N#CCC(=O)N1CC2(CC(c3cccc(NC(=O)COc4ccc(Cl)cc4)c3)=NO2)C[C@@H]1C(N)=O (stereo partly shown) | 5.41 |
| COc1ccc(NC(=O)Nc2cc(C)ccc2F)cc1 | 15 |
| O=C(Nc1ccccc1C(=O)N/N=C/c1ccc(O)cc1)c1ccccc1 | 8.37 |
| Cc1ccccc1-c1nnc(NC(=O)CSc2nc3ccccc3s2)s1 | 9.01 |
| CC(C)c1onc(C(=O)NCc2ccc(Cl)cc2)c1[N+](=O)[O-] | 11.2 |
| CC(C)C[C@@H](CSc1ccc(Br)cc1)N1CCN(CCc2ccccc2)CCC1=O | -28.9 |

| Compound | hERG current change (%, negative = inhibition) at 1uM [%] |
| --- | --- |
| Cc1nn(-c2ccccc2)c(Cl)c1C(=O)NCC(C)c1ccccc1 (stereo not shown) | 12.3 |
| COCCCNC(=O)CCn1c(=O)c2ccccc2n(CC(=O)NCCc2ccc(OC)c(OC)c2)c1=O | 8.61 |
| Cc1ccc(-c2nc(SCC(N)=O)c(C#N)c3c2CCCC3)cc1 | -0.619 |
| COC(=O)c1cc(Cl)nc2ccccc12 | 3.37 |
| COc1ccc(N2C(=O)C3CCCN3C2c2cccc(C)c2)cc1Cl (stereo not shown) | 0.486 |
| COc1ccc(N(CC(=O)NC2CCCC2)C(=O)CCC(=O)Nc2cc(C)on2)cc1OC | -7.47 |
| CCOC(=O)[C@]1(C#N)[C@@H]2C=CC(C(N)=O)=CN2[C@@H](C(N)=O)[C@@H]1c1ccc(F)cc1 | 13.7 |
| c1ccc(-c2ccc(C3=Nn4c(Cn5nnc6ccccc65)nnc4SC3)cc2)cc1 | 16.8 |
| COc1ccc(CCNC(=O)c2ccccc2NC(=O)c2ccco2)cc1OC | -11.3 |
| CO/N=C\CC(=O)Nc1ccc(Cl)c(Cl)c1 | 16 |
| CCn1nc2cc(C(=O)NCCc3cccs3)ccc2c1OC | -5.96 |
| O=C(COC(=O)c1cc(-c2ccccc2)nc2ccccc12)Nc1ccc2c(c1)OCO2 | 8.35 |
| Cc1ccc(-c2cc(C(=O)OCC(=O)Nc3ncc(C(F)(F)F)cc3Cl)c3ccccc3n2)cc1 | 12.6 |
| Cc1[nH]c2ccc(F)cc2c1CCNC(=O)C1CCCCC1C(=O)OCC(F)(F)F (stereo not shown) | 0.936 |
| COc1ccc(N2C(=O)C(Cl)=C(N3CCOCC3)C2=O)cc1 | 10.2 |
| Cn1c(=NC(=O)CCl)sc2ccccc21 | 6.93 |
| C=CCn1c(SCCOc2ccc(OC)cc2)nnc1C(C)NC(=O)Cc1ccc(OC)cc1 (stereo not shown) | -3.16 |
| CCOc1ccc(/C=N/NC(=O)COc2ccccc2-c2ccccc2)cc1 | 11.1 |
| CN1C(C(=O)NCc2ccccc2)CC2Cn3c(nc4cc5ccccc5cc43)C21 (stereo not shown) | -21.3 |
| COC(=O)C(O)(c1ccc(N(C)C(=O)c2ccc(Cl)c(Cl)c2)cc1)C(F)(F)F (stereo not shown) | 3.81 |
| CC(=O)Nc1c(O)n(C)c2ccccc12 | 12 |
| Cc1ccc(C(=O)CSc2nc3ccc(C(=O)NCCN4CCCCC4)cc3c(=O)[nH]2)cc1 | 9.89 |

| Compound | hERG current change (%, negative = inhibition) at 1uM [%] |
| --- | --- |
| COc1cccc(SCc2noc(C(=O)NCc3ccccc3)c2C(=O)NCc2ccccc2)c1 | 15.7 |
| Cc1cc2c(=O)n(C)c(SCC(=O)NC3CCCC3)nc2s1 | 2.81 |
| COC(=O)CSc1nc2c(c(=O)n(C)c(=O)n2C)n1CCC(C)C | 2.4 |
| CN1CCC(N(C)S(=O)(=O)c2ccc(C(C)(C)C)cc2)CC1.Cl | 2.58 |
| c1cc(CCCc2ccncc2)ccn1 | 1.58 |
| Cc1ccccc1CN1CCN(c2ccc(Cl)cc2)CC1 | 9.61 |
| Cc1cc(C)n(C(=O)c2cccc(S(=O)(=O)N3CCOCC3)c2)n1 | 12.4 |
| CN1CCN(C(=O)/C(=C/c2cccs2)NC(=O)c2ccco2)CC1 | -62.1 |
| Oc1[nH]c2ccccc2c1/C=N/c1nccs1 | 12.2 |
| O=S(=O)(c1ccc(S(=O)(=O)N2CCCC2)cc1)N1CCCCCC1 | 6.28 |
| COc1ccc(N2CCN(C(=O)COc3ccccc3)CC2)cc1 | 0.864 |
| Cl.O=S(=O)(c1ccccc1)N(CC(O)CN1CCCCC1)c1ccccc1 (stereo not shown) | -21 |
| O=C(c1nc2ccc(Cl)cn2c1CNCCc1cnccn1)N1CCCCCCC1 | 7.59 |
| Cc1ccc(S(=O)(=O)c2nnn3c2nc(Nc2cccc(C)c2)c2ccccc23)cc1 | 18 |
| S=C(Nc1ccc(Cl)cc1Cl)Nc1ccccc1Oc1ccccc1 | 12.4 |
| CN1CCN(CCC(=O)N/N=C/c2cc([N+](=O)[O-])ccc2O)CC1 | -0.0797 |
| CC(C)(C)OC(=O)NCc1ccc(CNC(=O)c2[nH]cnc2C(=O)NC2CCN(C(=O)OC(C)(C)C)CC2)cc1 | 9.26 |
| Cc1ccccc1NC(=O)c1ccc(Cl)c(NC(=O)c2ccncc2)c1 | 8.5 |
| O=C(Nc1nc(-c2ccccn2)cs1)c1ccco1 | 4.9 |
| CSCC[C@H](NC(=O)NCCC1=CCCCC1)C(=O)O | -0.163 |
| COc1ccc2nc(NC(=O)CS(=O)(=O)c3ccc(C)cc3)sc2c1 | 14.1 |
| COC(=O)c1cc2sccc2n1Cc1nc(-c2ccc(OC)cc2)oc1C | -2.21 |

| Compound | hERG current change (%, negative = inhibition) at 1uM [%] |
| --- | --- |
| COc1cccc(NC(=S)NNC(=O)CCn2cc([N+](=O)[O-])cn2)c1 | 7.92 |
| CC1(C)Cc2ccccc2C(NNC(=O)c2ccncc2)=N1 | 13.2 |
| CC(C)OC(=O)CSc1nnc(-c2ccccc2)n1N | 5.28 |
| COC(=O)CN(c1cccc(F)c1)S(C)(=O)=O | -7.37 |
| CCN(CC)c1nc2c(c(=O)n(C)c(=O)n2C)n1CC(=O)c1ccccc1 | 1.7 |
| COc1ccc2[nH]c(=O)c(CN(CCCN(C)C)C(=O)Nc3ccc(F)cc3)cc2c1 | -43.5 |
| COc1ccc(Oc2cn[nH]c2-c2ccc(O)cc2O)cc1 | 4.62 |
| COc1cccc(CC2(CO)CCCN(Cc3ccc4c(c3)OCCO4)C2)c1 (stereo not shown) | -5.09 |
| COC(=O)c1cc2n(n1)CCN(Cc1cccc(OC)c1)C2=O | 9.63 |
| COc1ccccc1C(=O)NC(=O)COC(=O)c1cc[n+]([O-])cc1 | 7.51 |
| CCN(Cc1ccccc1)S(=O)(=O)c1cc2[nH]c(=O)c(=O)[nH]c2cc1C | 13.1 |
| O=C1CCC([N+](=O)[O-])C(c2ccc(Cl)c([N+](=O)[O-])c2)N1 (stereo not shown) | 8.47 |
| CCc1ccccc1N(CC(=O)NC1CCCCC1)C(=O)CCC(=O)Nc1ccccn1 | 12.3 |
| CCCCOc1ccc(N2C(=O)CC(NCc3ccncc3)C2=O)cc1 (stereo not shown) | 0.866 |
| NS(=O)(=O)c1ccc(CCNC(=O)CNC(=O)c2ccc(F)cc2)cc1 | 21.7 |
| CCCCCCCCn1cnc2c(N)c(C)c(C)cc21 | 15.2 |
| Cc1ccccc1C(=O)N/N=C/c1ccncc1 | 21.7 |
| O=C(OCC(=O)N1CCN(c2ccccc2)CC1)c1ccccn1 | 2.77 |
| COc1ccccc1C(=O)NC1CCN(C(=S)NCCc2ccccc2)CC1 | 3.17 |
| CCC(C)(C)C1CCc2[nH]nc(C(=O)NC(C)C)c2C1 (stereo not shown) | 17.5 |
| CN(CC(=O)NCCc1ccccc1)S(=O)(=O)c1ccc(Br)s1 | 9.66 |
| COCc1cc(=O)[nH]c(Sc2c(-c3ccccc3)c3ccc(Cl)cc3[nH]c2=O)n1 | 13.9 |
